Results: PubChem BioAssay AID686971 (National Center for Advancing Translational Sciences (NCATS), 2013)
Screen size: about 360,000 compounds; about 7,500 (2.1%) were called active. Inconclusive means that the source gave no clear call. Such entries were picked first, then a sample of the others. Calls come from the whole dose curve; as a rule, active = well fitted cell-killing curve with a large enough effect; inconclusive = small, poorly fitted or top-dose-only effect, or effect the other way, or another doubt; inactive = no such curve, though single readings can be large or run the other way. No potency is given beside an inconclusive call; the fits are too rough.

assay: qHTS for induction of synthetic lethality in tumor cells producing 2HG: qHTS for the HT-1080-IDH1KD cell line; settings: HT-1080 IDH1 knockdown viability, ATP luminescence, 48 h; series mostly up to 46.1 µM
Summary of the method: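 HT-1080-IDH1KD cells (IDH1 knocked down), 750/well in RPMI with 5% FBS, treated with compound 48 h at 37 degrees C. Viability by CellTiter-Glo luminescence, normalised to DMSO and no-cell wells; concentration-response curves classed.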
Potency is the fitted concentration of half-maximal effect; tags give direction and shape of the fitted curve.

Compound | Potency
CCC(=O)Nc1c2c(nn1-c1cccc(Cl)c1)CSC2 | inactive
CC(C)CNC(=O)C1(C)CCCCCN1Cc1ccccc1-c1ccccc1 (centres undefined) | inconclusive [cytotoxic, single point]
COc1ccc(C)cc1-n1nnnc1SCc1cn2ccsc2n1 | inactive
CSc1nc2c(c(=O)[nH]c(=O)n2C)n1Cc1ccc(Cl)cc1 | inconclusive [cytotoxic, partial curve]
Cc1ccc(/C=C/C(=O)N2CCN(S(=O)(=O)c3ccc(C)c(C)c3)CC2)o1 | inconclusive [cytotoxic, single point]
CC(C)N1CCc2c(sc(NC(=O)c3ccc(S(=O)(=O)N4CCc5ccccc54)cc3)c2C(N)=O)C1 | active: 20.6 µM
CCOC(=O)C(C(=O)OCC)C(Nc1ccccc1)c1ccccc1 (centres undefined) | inconclusive [cytotoxic, single point]
CCOC(=O)N/N=C\c1ccc([N+](=O)[O-])s1 | inconclusive [cytotoxic, single point]
COc1ccc(CNCCC(c2ccccc2)c2ccc3c(c2)OCO3)cc1 (centres undefined) | inconclusive [cytotoxic, single point]
O=C(/C=C/c1ccccc1Cl)c1ccc[nH]1 | inconclusive [cytotoxic, single point]
Cn1c(/C=C/c2ccc([N+](=O)[O-])o2)nc2ccccc2c1=O | inconclusive [cytotoxic, partial curve]
CC(C(=O)Nc1ccc(N2CCOCC2)cc1)N1C(=O)NC(C)(C)C1=O (centres undefined) | inactive
O=C(N/N=C/c1cccn1-c1ccc([N+](=O)[O-])cc1)c1cccnc1 | inconclusive [cytotoxic, partial curve]
CCC(CC)C(=O)N(C)c1c(C)nc2c(OCC=C(C)C)cccn12 | active: 14.6 µM
CC(C)Oc1ccc(CNC(=O)CC(c2ccccc2)c2cc(Cl)ccc2O)cc1 (centres undefined) | inconclusive [cytotoxic, single point]
CCN1CCN(c2ccc(Nc3ccnc4ccccc34)cc2)CC1 | inconclusive [cytotoxic, partial curve]
CC(C)c1ccc(OCC(=O)NNC(=S)NC(=O)c2cccs2)c(Br)c1 | inactive
CCCCC[C@@H](C)N1C[C@@H](COCc2ccccc2)Oc2cc(N3CCC[C@H]3C(N)=O)ccc2S1(=O)=O | inconclusive [cytotoxic, single point]
CC(Oc1cccc(Br)c1)C(=O)NNC(=O)c1ccccn1 (centres undefined) | inconclusive [cytotoxic, partial curve]
COc1ccccc1-c1c(C)nn2c(N3CCCCCC3)cc(C)nc12 | inconclusive [cytotoxic, single point]
OCc1ccccc1-c1cnc2cccnn12 | inconclusive [rising, single point]
COc1ccc(CCNC2CC(=O)N(C3CCCCC3)C2=O)cc1OC (centres undefined) | inactive

Compound | Potency
Cc1cc(Cl)ccc1NC(=S)NCCC(c1ccccc1)c1ccccc1 | inconclusive [cytotoxic, single point]
N#Cc1ccccc1Sc1ccccc1C(=O)NCC(c1ccco1)N1CCCC1 (centres undefined) | inactive
CCOC(=O)c1cccc(N2C(N)=NC(N)=NC2(C)C)c1 | inconclusive [cytotoxic, single point]
CC(C)(C)c1ccc(C(=O)Nc2ccc(N3CCOCC3)cc2)cc1 | inconclusive [cytotoxic, full curve]
O=C(CCCN1C(=O)/C(=C/c2cccc(Br)c2)SC1=S)NCCCN1CCOCC1 | inconclusive [cytotoxic, single point]
O=C1NC[C@H](CC2CCCCC2)N(CCc2cc(C(F)(F)F)cc(C(F)(F)F)c2)C1=O | inconclusive [cytotoxic, single point]
COC(=O)c1[nH]c2c(c1C)C(=O)CC(c1cc(OC)ccc1OC)C2 (centres undefined) | active: 20.6 µM
CCOc1cc2c(cc1O)C(=NO)CC1C2CCC2(C)C(O)CCC12 (centres undefined) | inconclusive [cytotoxic, full curve]
CCOC(=O)N1CCN(S(=O)(=O)c2ccc3c(c2)CCN3C(=O)C2CC2)CC1 | inactive
CN(C)c1ccc(CN2CCC(C(=O)NC(c3ccc(Cl)cc3)c3cnccn3)CC2)cc1 (centres undefined) | inconclusive [cytotoxic, partial curve]
O=C(C(c1ccccc1)c1ccccc1)N1CCN(Cc2ccco2)CC1 | inactive
COc1ccc(OC)c(N(CC(=O)Nc2cccnc2)S(=O)(=O)c2ccc(C)cc2)c1 | inconclusive [cytotoxic, single point]
CCOC(=O)C(Cc1ccc(O)cc1)NC(=O)c1cc2c(cn1)[nH]c1ccccc12 (centres undefined) | inconclusive [cytotoxic, single point]
CC(C)(C)c1ccc(Cn2c(=N)n(CC(O)c3ccco3)c3ccccc32)cc1 (centres undefined) | active: 20.6 µM
Oc1ccc(/C=C/c2cc(O)cc(O)c2)cc1 | inconclusive [cytotoxic, single point]
O=C(CCNS(=O)(=O)c1cccc(C(F)(F)F)c1)NC1CC1 | inactive
O=C(O)c1cccc(N2C(=O)/C(=C/c3ccc(SCc4ccc(Cl)cc4)o3)SC2=S)c1 | inconclusive [cytotoxic, single point]
Brc1ccc(-c2ccc(/C=N/Nc3nc4ccccc4[nH]3)o2)cc1 | inconclusive [cytotoxic, single point]
Cc1cc(C)nc(NS(=O)(=O)c2ccc(NC(=O)c3cccc(N4C(=O)CCC4=O)c3)cc2)n1 | inactive
Cc1ccc2nc(NC(=O)CN(C)S(=O)(=O)c3cccc4nsnc34)sc2c1 | active: 8.2 µM
Cc1ccccc1NS(=O)(=O)c1ccc(NC(=O)c2nc3ncccn3n2)cc1 | inconclusive [rising, single point]
CN(Cc1cnn(-c2ccccc2)c1)C(=O)c1ccc(S(=O)(=O)NCc2ccco2)cc1 | inactive
